Laboratory results reported in article PMC4336329 (PLoS ONE, 2015).
The whole screen tested about 310,000 compounds, of which about 14,000 (4.5%) showed an effect of 50% or more. Effects have a minus sign here. The list shows a part of the results.

target: human ether-à-go-go-related gene (hERG) potassium channel (human, UniProt Q12809); experiment: primary screen, population patch clamp on CHO cells stably expressing hERG
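Note: peak tail current of the secondary pulse compared with the same well before compound.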

Chain of human ether-à-go-go-related gene (hERG) potassium channel (Q12809 whole entry, looked up): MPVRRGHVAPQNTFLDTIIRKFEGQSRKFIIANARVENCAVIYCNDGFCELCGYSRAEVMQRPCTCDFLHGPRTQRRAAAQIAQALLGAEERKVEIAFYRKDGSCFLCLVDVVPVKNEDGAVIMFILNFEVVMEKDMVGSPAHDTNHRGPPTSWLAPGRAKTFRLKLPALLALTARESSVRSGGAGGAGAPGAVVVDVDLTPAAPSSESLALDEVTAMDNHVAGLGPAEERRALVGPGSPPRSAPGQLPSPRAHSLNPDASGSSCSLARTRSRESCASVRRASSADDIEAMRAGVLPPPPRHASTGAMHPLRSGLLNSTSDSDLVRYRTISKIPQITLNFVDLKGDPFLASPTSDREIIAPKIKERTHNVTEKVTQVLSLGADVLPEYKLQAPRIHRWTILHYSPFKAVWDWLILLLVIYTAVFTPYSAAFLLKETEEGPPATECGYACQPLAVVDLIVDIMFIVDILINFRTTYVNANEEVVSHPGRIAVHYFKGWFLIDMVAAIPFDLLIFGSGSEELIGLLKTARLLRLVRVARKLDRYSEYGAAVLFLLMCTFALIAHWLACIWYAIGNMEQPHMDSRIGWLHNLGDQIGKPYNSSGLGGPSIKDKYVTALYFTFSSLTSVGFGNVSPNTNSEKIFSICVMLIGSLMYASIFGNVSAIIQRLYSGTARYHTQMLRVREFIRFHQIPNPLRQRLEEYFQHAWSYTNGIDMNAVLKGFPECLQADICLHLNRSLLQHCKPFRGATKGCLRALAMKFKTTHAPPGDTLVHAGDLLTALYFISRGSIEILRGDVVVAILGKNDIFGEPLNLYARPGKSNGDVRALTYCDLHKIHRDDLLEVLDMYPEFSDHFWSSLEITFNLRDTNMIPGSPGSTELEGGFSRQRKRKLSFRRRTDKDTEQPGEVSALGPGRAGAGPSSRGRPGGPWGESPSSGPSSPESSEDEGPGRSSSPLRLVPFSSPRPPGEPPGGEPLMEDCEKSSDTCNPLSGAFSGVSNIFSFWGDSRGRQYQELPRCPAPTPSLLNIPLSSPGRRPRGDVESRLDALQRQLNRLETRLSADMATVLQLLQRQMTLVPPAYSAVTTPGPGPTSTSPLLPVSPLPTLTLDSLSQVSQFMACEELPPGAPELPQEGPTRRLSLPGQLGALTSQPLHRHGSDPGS

SMILES | hERG current change (%, negative = inhibition) at 10uM [%]
c1ccc2cc(OCc3nc4ccccc4[nH]3)ccc2c1 | -1.83
CCOc1ccc(COC(=O)C2CC(=O)N(CCc3ccccc3)C2)cc1OC (stereo not shown) | -21.6
Cc1ccc(NC(=O)CN(C)C(=O)COC(=O)COc2ccc(C#N)cc2)cc1 | -24.2
Cc1cc(N2C(=O)NC(=O)CC2C)c(C)cc1C(C)C (stereo not shown) | -0.172
CC(C)Cc1cc(CNC(=O)C2CCC(=O)N(Cc3cccc(C(F)(F)F)c3)C2)on1 (stereo not shown) | 3.35
COc1ccc(/C(N)=N/OC(=O)Cc2ccc(C)cc2)cc1 | 9.68
CC(C)(C)c1ccc(C(=O)N2CCN(C(=O)c3ccco3)CC2)cc1 | 0.705
O=c1[nH]c2sc3c(c2c(=O)n1Cc1ccccc1)CCC3 | -3
COC(=O)c1cc2c(=O)c3ccccc3oc2nc1C | 15
O=C(O)c1ccccc1C(=O)N1CCN(c2cccc(Cl)c2)CC1 | 11.1
CCN(CC)CCNC(=O)c1cc(Sc2nnc(C)s2)nc2ccccc12 | -45.3
COc1ccc(CCNC(=O)c2cc(=O)[nH]c3ccccc23)cc1 | 21.4
Cc1cc(C(C)(C)C)cc(C)c1COC(=O)C1CCC(=O)N1 (stereo not shown) | -7.15
Clc1ccc(CSc2nnc(-c3ccncc3)s2)cc1 | 14.1
CCCSc1nc2sc3c(c2c(=O)n1CC)CC(C)(C)OC3 | 3.41
COC(=O)c1nnn(-c2nonc2N)c1CSc1nc2ccccc2o1 | -4.78
COc1ccc(C(=O)N(C)Cc2ccon2)cc1OC1CCN(C(C)C)CC1 | 7.6
CCCN1C(=O)C(O)(c2c(C)[nH]c3ccccc23)c2ccccc21 (stereo not shown) | 4.55
COc1cccc(C(=O)Nc2nc(-c3ccc4c(c3)OCO4)cs2)c1 | 6.23
Cc1ccc(S(=O)(=O)/N=C(/Nc2c(C)n(C)n(-c3ccccc3)c2=O)c2ccc(Cl)cc2)cc1 | -57
O=C(CCN1C(=O)C2CC=C(Cl)CC2C1=O)N1CCCCC1 (stereo not shown) | 12.9
O=C(O)c1sccc1Oc1ccc(NS(=O)(=O)c2ccc(Cl)cc2)cc1 | 15.6

SMILES | hERG current change (%, negative = inhibition) at 10uM [%]
CCN(Cc1ccncc1)C(=O)c1ccco1 | -73.5
Cc1ccc(S(=O)(=O)c2cc3c(=O)n4ccccc4nc3n(CC3CCCO3)c2=N)cc1C (stereo not shown) | -50.8
CN1CCc2c(sc3c2C(=O)NC(/C=C/c2ccco2)N3)C1 (stereo not shown) | -27.4
CCc1cc(SC#N)cc(C)c1NC(=O)CCl | 26.4
CC(C)(C)NC(=O)C1CCN(S(=O)(=O)c2cccc(C(F)(F)F)c2)CC1 | -4.16
Cc1ccc(CNC(=O)N[C@@H](Cc2ccccc2)C(=O)O)cc1 | 2.8
Cc1ccccc1C(=NCCCN(C)C)c1ccccc1C.Cl | -21.7
COc1ccc(Cl)cc1NCCC(O)c1ccc(F)cc1 (stereo not shown) | -0.849
O=C(O)c1ccc(NC(=O)c2ccccc2NC(=O)c2cccc(Br)c2)cc1 | 12.2
Cc1sc2c(c1C)c(=O)n(-c1ccc(Cl)cc1)c(=O)n2Cc1cc(=O)n2ccccc2n1 | -36.4
Cc1cc(OCCn2ccnc2)ccc1C(C)C | 0.214
CC(=O)c1ccc(-n2c(-c3cc(-c4ccsc4)n[nH]3)n[nH]c2=S)cc1 | 20.3
Cc1ccc(S(=O)(=O)NCCc2nnc(SCc3cccnc3)n2C)cc1 | 2.38
CCCCNc1nc(=S)[nH]c2cc(OC)c(OC)cc12 | -43.1
CCN(CC)CCCNC(=O)c1cn(CC)c2ccc(S(=O)(=O)N(C)C3CCCCC3)cc2c1=O | -75.7
COc1ccccc1CCNCc1ccc(OC)c(OCc2ccccc2)c1 | -71.9
Cc1ccc2cc(CN(CCCO)S(=O)(=O)c3ccccc3F)c(=O)[nH]c2c1C | -9.6
N#CCCN(C(=O)Nc1ccc(Cl)cc1)c1ccccc1 | -7.73
CC1CCN(c2c(NCC3CCC(C(=O)NCCC4=CCCCC4)CC3)c(=O)c2=O)CC1 (stereo not shown) | 0.506
CC1Cc2ccccc2N1C(=O)CCS(=O)(=O)c1cccs1 (stereo not shown) | 0.682
C(=N\c1nc2ccccc2n1CCN1CCCCC1)/c1ccc2c(c1)OCO2 | -45.6
